# Out of some 50,000 compounds screened, about 800 (1.6%) showed an effect of 50% or more. This is one part of the list.
# Biological target: Bcl-2-like protein 10 (Homo sapiens) (UniProt Q9HD36)
# Assay: TR3 peptide-Bcl-B binding displacers, biochemical primary FP assay, phenotype converters (AID 1240);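 note: 0% = Bcl-B with tracer peptide and DMSO and 100% = tracer peptide lacking Bcl-B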
# Conditions: GST-Bcl-B / FITC-TR3 peptide fluorescence polarization; stronger effect = higher value; compound at 3.75 mg/L
# UniProt Q9HD36, sequence (Q9HD36 whole entry, looked up): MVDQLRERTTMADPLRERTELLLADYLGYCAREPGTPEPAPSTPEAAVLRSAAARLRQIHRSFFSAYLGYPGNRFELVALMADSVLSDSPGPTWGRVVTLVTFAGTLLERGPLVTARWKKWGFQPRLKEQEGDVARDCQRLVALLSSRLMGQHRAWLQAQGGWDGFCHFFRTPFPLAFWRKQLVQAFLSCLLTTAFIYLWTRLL
row,SMILES,displacement [%]
1,CCCCN1C(=O)/C(=C\c2ccc(N(CC)CC)cc2)SC1=S,-18.9
2,COc1ccc2nc(NC(C)=O)sc2c1,17.4
3,Cc1ccc(C(=O)Nc2cccc(F)c2)cc1S(=O)(=O)N1CCCCC1,-7.4
4,COc1cc(C=O)ccc1OC(=O)c1cc(OC)c(OC)c(OC)c1,9.2
5,Cc1cc(/C=C2\C(=O)NC(=O)N(c3ccccc3)C2=O)c(C)n1-c1cccc([N+](=O)[O-])c1,9.1
6,Cc1ccc(CC2C(=O)N(c3cccc(Cl)c3C)C(=O)C2C)cc1 (stereo not given),0.6
7,CC(=O)c1ccc(NC(=O)C2CC(=O)N(c3ccccc3)C2)cc1 (stereo not given),-2.6
8,O=C1S/C(=C\c2ccc(-c3ccc([N+](=O)[O-])cc3)o2)C(=O)N1c1ccccc1,70.2
9,CCP(=O)(CC)c1ccccc1CO,0.4
10,O=C(/C=C/c1ccc(-c2ccc(Br)cc2)o1)c1ccc([N+](=O)[O-])cc1,-1.7
11,Cc1sc(NC(=O)c2cccs2)c(C#N)c1C,0.5
12,O=Cc1ccc(-c2cccc(OC(F)(F)F)c2)o1,-7.2
13,COC(=O)c1ccccc1NC1=NS(=O)(=O)c2ccccc21,6.9
14,CC1(C)Cc2c(sc3[nH]c(=S)n(CCc4ccccc4)c(=O)c23)CO1,0.1
15,CCOc1ccccc1NC(=O)CN(c1cc(C)cc(C)c1)S(=O)(=O)c1ccccc1,-1.8
16,CCOn1c(=O)c(-c2cccs2)[n+]([O-])c2ccccc21,121
17,Cc1c(C(=O)Nc2ccc(OC(F)(F)F)cc2)cccc1[N+](=O)[O-],-6.4
18,Cc1ccc(C(C)C)c(OCCNC(=O)c2ccccc2Cl)c1,0
19,CN1C(=O)/C(=C\c2cc(Br)ccc2OCc2ccccc2)SC1=S,-24.5
20,COc1cccc(CN2CCN(Cc3ccc(C(F)(F)F)cc3)CC2)c1OC,-4.4
21,CCOC(=O)c1c(NC(=O)c2ccccc2F)sc(C(=O)Nc2ccc(OC)cc2OC)c1C,9.5
22,COc1cc(C)c(/C=C2\C(=O)NC(=O)N(Cc3ccccc3)C2=O)cc1C,-6.7
23,O=C(O)C1C2C=CC(C3CC23)C1C(=O)Nc1ccc(F)cc1 (stereo not given),10.5
24,COC(=O)c1cc(NC(=O)c2ccc(OCc3ccccc3)cc2)cc(C(=O)OC)c1,13.9
25,COc1ccc(S(=O)(=O)Nc2ccc(Oc3ccccc3)cc2)cc1Br,-7.1
26,COc1cccc(CN2CCN(C3CCCCC3OC)CC2)c1OC (stereo not given),-15.9
27,Nc1nc(-c2ccc(C3CCCCC3)cc2)cs1,-10.2

row,SMILES,displacement [%]
1,COc1ccc(/C=C2/SC(=O)N(CC(=O)Nc3ccc(F)c(Cl)c3)C2=O)cc1OC,12.3
2,CCOc1ccc(C(=O)NC(C)(C)C)cc1Cl,11.6
3,Nc1nnnn1/N=C/C=C/c1cccc([N+](=O)[O-])c1,1.9
4,CCOc1ccccc1NC(=O)CN(Cc1ccccc1)S(=O)(=O)c1ccc(OC)c(OC)c1,-9.5
5,Cc1ccc(S(=O)(=O)C/N=C(/NC(=S)Nn2cnnc2)c2ccccc2)cc1,-13.5
6,NC(=O)CNC(=O)c1ccc(C#CC2(O)CCCCC2)cc1,-4.4
7,O=C(/C=C/c1ccccc1)NC(=S)Nc1cc([N+](=O)[O-])cc(Cl)c1O,8.5
8,COc1cccc(OCCn2ccnc2)c1,3.7
9,Clc1ccc(-c2nc(N3CCCC3)c3ccccc3n2)cc1,2.5
10,O=C(COc1ccc([N+](=O)[O-])cc1)Nc1cccc(-c2nc3cc(Cl)ccc3o2)c1,18.9
11,COC(=O)c1ccc(/C=N/NC(=O)CC2=NNC(=O)C2)cc1,-23.5
12,CC(c1ccccc1)c1nnc(NC(=O)c2ccco2)s1 (stereo not given),12.4
13,COc1ccc(OCCOCCN2CCC(C)CC2)cc1,-9.4
14,COc1ccccc1/C=N\N1CCN(c2ccccc2)CC1,-5.3
15,O=c1oc(-c2cc([N+](=O)[O-])cc([N+](=O)[O-])c2)nc2cc(Cl)ccc12,-5.7
16,CCc1nc2ccccc2n1Cc1ccc([N+](=O)[O-])cc1,10.4
17,CC(C)CN1C(=O)/C(=C/c2ccccc2F)SC1=S,10.4
18,C#CCSc1nnc2nc(C)cc(C)n12,6.9
19,CC1(C)CC(NC(=O)c2cccc(Br)c2)CC(C)(C)N1,4.9
20,CC(=O)N1CC23C=CC(CC2CC12CCCCCC2)O3 (stereo not given),-0.8
21,CCOC(=O)c1c(-c2ccc(Br)cc2)csc1NC(=O)c1cccc([N+](=O)[O-])c1,-2.7
22,CC(C)c1ccc(-c2nc(N)c3c(=O)oc4ccccc4c3n2)cc1,9.8
23,COc1cc(C=C2C(=O)N(C)C(=O)N(C)C2=O)ccc1OCCOc1ccc([N+](=O)[O-])cc1,26.1
24,N#Cc1c(-c2ccc(Cl)cc2)n(Cc2ccccc2)c(=O)n(Cc2ccccc2)c1=O,-0.7
25,CCN(CC)CCCCOc1ccccc1[N+](=O)[O-],6.3
26,COc1cc(/C=N/N=C2/NC(=O)C(CC(=O)Nc3ccccc3F)S2)ccc1O (stereo not given),-0.7
27,C=CCc1cccc(/C=N/Nc2nc(-c3cc4cc(OC)ccc4oc3=O)cs2)c1O,-17.5

row,SMILES,displacement [%]
1,O=C(O)CCC(=O)N(CCc1ccccc1)C1CC(=O)N(c2ccc(Cl)cc2)C1=O (stereo not given),-5.5
2,Nc1nonc1-c1nc2ccccc2n1CC(=O)Nc1ccc(F)cc1F,-1.9
3,O=C1C2C3C=CC(C2C(=O)N1C1CCCCC1)C1C(=O)N(C2CCCCC2)C(=O)C31 (stereo not given),-6
4,Fc1ccc(C2=NCCn3cccc32)cc1,1.2
5,Cc1cc(C)c2nc3s/c(=C\c4ccc(-c5ccccc5C(=O)O)o4)c(=O)n3c2c1,-16
6,O=C(Cn1cc(/C=C2/C(=O)NC(=O)N(c3cccc(F)c3)C2=O)c2ccccc21)Nc1ccccc1,116
7,COc1ccc(C(=O)N2CCN(C3CCCC3)CC2)cc1OC,-4.6
8,C/C(O)=C(/C(=O)Nc1ccccc1[N+](=O)[O-])c1ccccc1,10.4
9,COc1ccc(CNC(=O)c2ccc(Cl)cc2)cc1,-7.3
10,CCOc1ccc(C(=O)Nc2cccc(NC(=O)c3ccc(F)cc3)c2)cc1,13.3
11,Cc1cc(C)nc(SCC(=O)N/N=C/c2c(Cl)cccc2Cl)n1,13.3
12,CC(COCCc1nnc(NC(=O)c2ccccc2)s1)OCCc1nnc(NC(=O)c2ccccc2)s1 (stereo not given),15.5
13,COc1ccc(/C=C(\NC(=O)c2ccccc2)C(=O)NN)c(OC)c1,-11.2
14,Cc1ccc(/C=C2\SC(=Nc3ccc(F)cc3)NC2=O)o1,101
15,O=C1S/C(=C\c2cccc(Cl)c2Cl)C(=O)N1c1ccccc1,9.6
16,CCCC(=O)N1CCN(c2cc(N3CCCCC3)c(F)cc2[N+](=O)[O-])CC1,-12
17,COc1ccccc1CNC(=O)C(=O)Nc1cccc(Cl)c1,5.2
18,CC(NC(=O)OC(C)(C)C)C(=O)Oc1cc2oc(=O)cc(-c3ccccc3)c2cc1Cl (stereo not given),-0.9
19,CCCN1C(=O)/C(=C2\SC(=S)N(CCC(=O)O)C2=O)c2ccccc21,5.3
20,Cc1sc(NC(=O)COc2ccc(Cl)cc2Cl)c(C#N)c1C,-21.8
21,COc1ccc(NC(=O)c2c(-c3c(Cl)cccc3Cl)noc2C)c([N+](=O)[O-])c1,11.5
22,CC(=O)Nc1ccc(N2C(=O)/C(=C/c3ccc([N+](=O)[O-])cc3)C=C2c2ccccc2)cc1,13.7
23,Fc1ccc(OCCn2ccnc2)cc1,3.4
24,COCCN1C(=O)C(=O)/C(=C(/O)c2ccccc2)C1c1ccc(OC)cc1 (stereo not given),-5.6
25,O=C1NC(=O)N(c2cccc(Br)c2)C(=O)/C1=C/c1ccc(Oc2ccc([N+](=O)[O-])cn2)cc1,11.7
26,Cc1ccccc1C(=O)Nc1ccc([N+](=O)[O-])cn1,8.3
27,C=CCN1C(=O)NC(=O)/C(=C\c2ccccc2OCc2ccc([N+](=O)[O-])cc2)C1=O,9.4

row,SMILES,displacement [%]
1,Cc1nn(S(=O)(=O)c2ccccc2[N+](=O)[O-])c(C)c1Sc1ccc([N+](=O)[O-])cc1,2.5
2,O=C(NCCNc1ccc(Cl)cc1[N+](=O)[O-])C(c1ccccc1)c1ccccc1,-35.2
3,CCC(C)c1ccccc1OCCn1cc(/C=C2/SC(=S)NC2=O)c2ccccc21 (stereo not given),128
4,O=C(Nc1ccc(Cl)c(-c2nc3ccccc3[nH]2)c1)c1cc2ccccc2o1,-16
5,COc1ccc(C2NC(=O)NC(C)=C2C(=O)Nc2ccc(Cl)cc2)c(OC)c1 (stereo not given),-5.3
6,N/C(=N\OC(=O)c1cccc(F)c1)c1cccnc1,0.7
7,CN(CCN(C)/N=C/c1cc([N+](=O)[O-])ccc1O)/N=C/c1cc([N+](=O)[O-])ccc1O,8
8,CN(C)c1ccc(C(=O)c2ccccc2C(=O)O)c(O)c1,11
9,O=C(O)c1c(-c2ccccc2)oc2ccc(OCc3ccccc3)cc12,5.4
10,COc1ccc(C(=O)NNC(=O)c2cccc(C(=O)NNC(=O)c3ccc(OC)c(OC)c3)c2)cc1OC,3.3
11,CCOC(=O)c1c(NC(=O)c2ccc3c(c2)OCO3)sc(C(=O)Nc2ccccc2F)c1C,6
12,CCOC(=O)c1c(NC(=O)C2C3CCC(O3)C2C(=O)O)sc2c1CCC(CC)C2 (stereo not given),3
13,CC1=C(C(=O)OC(C)C)C(c2ccc(C)c([N+](=O)[O-])c2)C2=C(CCCC2=O)N1 (stereo not given),-5.2
14,C=CCc1c(C)nc2cc(-c3ccc(I)cc3)[nH]n2c1=O,-7.4
15,O=C(c1ccc([N+](=O)[O-])cc1)N1CCN(C2CC3CCC2C3)CC1 (stereo not given),-12
16,O=C(Cc1ccccc1)NC(NC(=O)Cc1ccccc1)c1cccc([N+](=O)[O-])c1,3.5
17,CCOC(=O)c1c(N)sc(C(=O)N2CCCC2)c1C,5.9
18,COc1ccc(-c2nn(-c3ccccc3)cc2/C=c2\sc3nc(-c4ccc(Cl)cc4)nn3c2=O)cc1,21.9
19,N/C(=N\OC(=O)COc1ccc(Br)cc1)c1ccc(Cl)cc1,1.8
20,CCc1c(C)c2ccc(OCC(=O)c3ccccc3)cc2oc1=O,-0.3
21,Cc1ccc(NC2C=CS(=O)(=O)C2)cc1C (stereo not given),6.7
22,CCOC(=O)c1ccc(N2NC(=O)/C(=C/c3cccc(I)c3)C2=O)cc1,13
23,Cc1cccc(C)c1NC(=O)COc1ccc2ccccc2c1,-2.5
24,CCOc1ccc(C(=O)COC(=O)c2ccccc2I)cc1,-1.1

# Source: PubChem BioAssay AID1240 (Sanford-Burnham Center for Chemical Genomics, 2008)
